{"source": "ChEMBL document CHEMBL4888484", "about": "“Replenishing the malaria drug discovery pipeline: Screening and hit evaluation of the MMV Hit Generation Library 1 (HGL1) against asexual blood stage Plasmodium falciparum ,using a nano luciferase reporter read-out” (2022)", "note": "Among all 150,000 compounds or so, about 540 (0.36%) showed an effect of 50% or more. This is one part of the list.", "data": [{"test_system": "Plasmodium falciparum", "assay": "Primary screen in NF54 nanoGlo assay, in single point, at 2uM, 72h; a lower Z score goes with more inhibition", "assay_type": "functional, Erythrocyte", "details": "timepoint 72 hour", "units": {"% Inhibition": "%"}, "values": [{"smiles": "Cc1cnc(C(=O)NC[C@H]2CCC3(CCOCC3)CO2)c(C)c1", "% Inhibition": 4, "Z score": -0.54}, {"smiles": "CC(C(=O)Nc1ccc(N2CCCCC2)cc1)N1CCCC(C(N)=O)C1", "note": "(stereo unspecified)", "% Inhibition": 7, "Z score": -0.82}, {"smiles": "COc1ccc(S(=O)(=O)N2CCC(O)(CN3CCCC3)CC2)cc1Cl", "% Inhibition": 1, "Z score": -0.24}, {"smiles": "O=C(CN1CCOCC1=O)NCC1(C2CC2)CCC1", "% Inhibition": -13, "Z score": 1.68}, {"smiles": "Cc1ccccc1C1CC(C)N(C(=O)c2ccc(CN)o2)C1", "note": "(stereo unspecified)", "% Inhibition": 2, "Z score": -0.26}, {"smiles": "CC(=O)Nc1cccc(COc2nc(Cc3ccc(F)cc3)no2)c1", "% Inhibition": -4, "Z score": 0.5}, {"smiles": "COc1cc(C)ccc1OCc1nc(C(=O)NCc2nc(C)c(C)s2)co1", "% Inhibition": -12, "Z score": 1.54}, {"smiles": "O=C(c1scc2c1CCCC2)N1CCC(C(=O)O)(n2cccn2)CC1", "% Inhibition": -10, "Z score": 1.04}, {"smiles": "COc1ccc(N2CCN(C(=O)c3csc(CN(CCc4ccc(OC)c(OC)c4)Cc4ccc(C)cc4)n3)CC2)cc1", "% Inhibition": -8, "Z score": 0.77}, {"smiles": "c1ccc2c(-n3cnnc3CN3CCOCC3)cccc2c1", "% Inhibition": -3, "Z score": 0.68}, {"smiles": "CCOC(=O)N1CC[C@@H](c2ccccc2F)S(=O)(=O)CC1", "% Inhibition": -12, "Z score": 2.01}, {"smiles": "Cn1cc(-c2cc(-c3cnn(C)c3)n(-c3ccc(Cl)c(Cl)c3)n2)cn1", "% Inhibition": 25, "Z score": -2.81}, {"smiles": "Cc1n[nH]c2c1CN(Cc1[nH]cc(C)c(=O)c1C)CC2", "% Inhibition": -8, "Z score": 1}, {"smiles": "c1cc2c(cc1CN(Cc1nnc(C3CC3)o1)C1CCCC1)CCO2", "% Inhibition": -17, "Z score": 2.6}, {"smiles": "O=C(CC(F)(F)F)Nc1ccc(-n2cc[nH]c2=O)cc1", "% Inhibition": 8, "Z score": -1.06}, {"smiles": "COC1(CNc2nc(N)c3[nH]cnc3n2)CCOCC1", "% Inhibition": 0, "Z score": 0.02}, {"smiles": "O=C(NC1CCC(O)CC1)c1csc2c1CCCC2", "note": "(stereo unspecified)", "% Inhibition": -7, "Z score": 1}, {"smiles": "Cc1ccc(Cn2cc([C@H](CC(=O)NCCN3CCOCC3)c3cccc(C(F)(F)F)c3)c3ccccc32)cc1", "% Inhibition": -9, "Z score": 1.15}, {"smiles": "Cn1cc(CNc2ccc3c(c2)nnn3C)c(C(C)(C)C)n1", "% Inhibition": -5, "Z score": 0.81}, {"smiles": "CC(C)Cn1c([C@H]2CCN(C(=O)Cc3ccsc3)C2)nc2ccncc21", "% Inhibition": 0, "Z score": 0.02}, {"smiles": "NC[C@H]1Cc2cc(F)cc(-c3cc(C(F)(F)F)cc4[nH]cnc34)c2O1", "% Inhibition": 14, "Z score": -1.38}, {"smiles": "N#CC1=NN(c2ccc(Cl)cc2Cl)[C@H]2CCCCCN2C1=O", "% Inhibition": -8, "Z score": 1.17}, {"smiles": "COC(=O)CC[C@H](C)NCc1cccc(CO)c1", "% Inhibition": -16, "Z score": 1.69}, {"smiles": "CCn1nc(C)cc1-c1nc2ccccn2n1", "% Inhibition": -6, "Z score": 1.15}, {"smiles": "CCC(N)(CC)CNC(=O)Nc1cc(-c2ccoc2C)on1", "% Inhibition": -2, "Z score": 0.4}, {"smiles": "CCOC(=O)c1noc2ncnc(N3CC[C@H](c4ccccc4)C3)c12", "% Inhibition": -3, "Z score": 0.57}, {"smiles": "Cc1cccc(C)c1NC(=O)NCc1cc2n(n1)CCN(C1CCCCC1)C2", "% Inhibition": 2, "Z score": -0.22}, {"smiles": "O=S(=O)(N[C@H]1CCOC[C@@H]1O)c1cccc2cccc(Cl)c12", "% Inhibition": 1, "Z score": -0.16}, {"smiles": "CC(C)CCNC(=O)CCCOc1ccccc1", "% Inhibition": -17, "Z score": 2.48}, {"smiles": "FC(F)Cn1ccc(NCc2[nH]ncc2Br)n1", "% Inhibition": -13, "Z score": 1.76}, {"smiles": "CN=C(NCCC1=CCOCC1)NC1CC(C)N(c2ccccc2)C1", "note": "(stereo unspecified)", "% Inhibition": 0, "Z score": 0.03}, {"smiles": "Fc1cccc2nc(N3CCC[C@H]3c3ncccn3)oc12", "% Inhibition": -12, "Z score": 1.94}, {"smiles": "CCN(CC)C[C@H](O)COc1ccc(Cl)cc1Cl", "% Inhibition": 9, "Z score": -1.14}, {"smiles": "COCCN(Cc1c(C)nn(C)c1Cl)CC1CCN(Cc2ccccc2F)CC1", "% Inhibition": -10, "Z score": 1.32}, {"smiles": "CC(C)[C@@]1(C(=O)Nc2ncccc2O)CNC(=O)C1", "% Inhibition": 6, "Z score": -1.2}, {"smiles": "Cc1ccc(-n2cccn2)c(-c2c(C#N)c(N)nc3c2CC(N)CC3)c1", "note": "(stereo unspecified)", "% Inhibition": -3, "Z score": 0.42}, {"smiles": "CNC(=O)c1ccc(N(C)[C@H](CO)CC(C)C)nn1", "% Inhibition": -42, "Z score": 4.89}, {"smiles": "C=CCCCC(NCCc1c(C)noc1C)C1(C)CCCO1", "note": "(stereo unspecified)", "% Inhibition": -5, "Z score": 0.73}, {"smiles": "CC(C)(CN[C@H]1CCCS(=O)(=O)C1)c1ccccc1Cl", "% Inhibition": 7, "Z score": -0.75}, {"smiles": "CCN1CCN(C(=O)c2nn(-c3cc(C)ccc3F)c3c2CCC3)[C@@H](C)C1", "% Inhibition": -13, "Z score": 2.17}, {"smiles": "CCCCn1ccnc1-c1cccc(NC(=O)Cc2cc(C)[nH]n2)c1", "% Inhibition": 0, "Z score": 0}, {"smiles": "CCCC1(C2CCN(C(=O)c3ccoc3)CC2)NC(=O)N(CCC2CCCN2C)C1=O", "note": "(stereo unspecified)", "% Inhibition": -4, "Z score": 0.8}, {"smiles": "Cc1noc2nc(CCC(=O)NCc3ccc(F)cc3)nc(N3CC(C)CC(C)C3)c12", "note": "(stereo unspecified)", "% Inhibition": 17, "Z score": -2.6}]}]}
